Source: patent publication US10064842B2, “KCNQ channels as therapeutic targets” (Washington University, priority 2013, dated 2018)
Blank lines part the entries; values can stand above or below the molecule they belong to.

Key:
[1] = system: guinea pig ventricular myocytes (IKs); assay: Action potentials and IKs in guinea pig ventricular myocytes at different internal ATP, with and without chromanol 293b; format: cell-based
[2] = biological target: T1, KCNQ1 (Homo sapiens, UniProt P51787); assay: C4 on KCNQ1 channel currents, step from -80 to +40 mV; format: cell-based
[3] = biological target: KCNQ2/3 (M-channels) (Homo sapiens, UniProt O43525+O43526); assay: C28 on M-channels (KCNQ2/3): current and G-V relation; format: cell-based
[4] = biological target: T1, KCNQ1; assay: C28 on KCNQ1 channels: current and G-V relation; format: cell-based
[5] = biological target: T2, IKs channel (KCNQ1 and KCNE1) (Homo sapiens, UniProt P51787); assay: C28 on IKs channels: current and G-V relation; format: cell-based
[6] = biological target: T2, IKs channel (KCNQ1 and KCNE1); assay: C29 inhibition of channel current induced by +60 mV pulse; format: cell-based; conditions: 100 μM C29, +60 mV pulse
[7] = biological target: KCNQ1+KCNE1 (IKs) WT (Homo sapiens, UniProt P51787); assay: IKs currents in inside-out membrane patches from Xenopus oocytes at various intracellular ATP/nucleotide concentrations

Molecule: CCS(=O)(=O)N(C)[C@H]1c2cc(C#N)ccc2OC(C)(C)[C@@H]1O (racemic) [chromanol 293B]
effect of chromanol 293b on action potential ([1]; 10 mM vs 3 mM internal ATP): greater effect

Molecule: Nc1ncnc2c1ncn2[C@@H]1O[C@H](COP(=O)(O)OP(=O)(O)OP(=O)(O)O)[C@@H](O)[C@H]1O [ATP, adenosine-5′-triphosphate]
effect on ventricular action potential duration ([1]; 10 mM vs 3 mM ATP in patch pipette solution): shortens the ventricular action potential duration

Molecule: O=[N+]([O-])c1ccc(Nc2ccc(Nc3ccccc3)c(S(=O)(=O)[O-])c2)c([N+](=O)[O-])c1.[Na+] [C4, sodium; 2-anilino-5-(2,4-dinitroanilino)benzenesulfonate]
effect on KCNQ1 channel activity [2]: modulates KCNQ1 channel activity

Hill coefficient of the change in V1/2 ([3]; KCNQ2/3): 0.92±0.06 | EC50 ([3]; KCNQ2/3, read-out: EC50 of the change in V1/2 (V1/2 control−V1/2C28)): 4.4 ± 0.3 µM | effect on channel current ([3]; M-currents measured at +40 mV): increases channel current | V1/2 of G-V relation ([3]; in the presence of C28): −45.9±0.4 mV | slope of G-V relation ([3]; in the presence of C28): 8.21±0.37 mV | V1/2 of G-V relation (Boltzmann fit) ([4]; 10 μM C28): −86.3±1.2 mV | slope of G-V relation ([4]; 10 μM C28): 14.8±1.2 mV | effect on current amplitudes ([4]; KCNQ1): increases current amplitudes | EC50 ([4]; KCNQ1, read-out: EC50 of the change in V1/2 (V1/2 control−V1/2C28)): 15.8 ± 8.5 µM | V1/2 of G-V relation (Boltzmann fit) ([5]; 10 μM C28): −32.2±1.0 mV | slope of G-V relation ([5]; 10 μM C28): 18.9±1.1 mV | effect on current amplitudes ([5]; IKs): increases current amplitudes | EC50 ([5]; IKs channels, read-out: EC50 of the change in V1/2 (V1/2 control−V1/2C28)): 12.7 ± 11.4 µM
Molecule: O=C1c2ccccc2C(=O)c2c(Nc3cccc(S(=O)(=O)O)c3)c(Nc3ccc(S(=O)(=O)O)cc3)cc(O)c21 [C28, disodium;3-[[4-hydroxy-9,10-dioxo-2-(4-sulfonatoanilino)anthracen-1-yl]amino]benzenesulfonate]
direction of G-V shift ([5]; dose response): shifts IKs in the negative direction in a dose dependent manner

Molecule: Cc1ccc(Oc2ccc(N3C(=O)c4ccc(C(=O)O)cc4C3=O)cc2)cc1C [C29, 2-[4-(3,4-Dimethylphenoxy)phenyl]-1,3-dioxoisoindoline-5-carboxylic acid]
inhibition of channel current, IKs versus KCNQ1 alone [6]: inhibits IKs channel current more effectively than KCNQ1 alone

saturation of IKs channel activation ([7]; 5 μM PIP2): 50% | saturation of IKs channel activation ([7]; 100 μM PIP2): 100%
Molecule: phosphatidylinositol 4,5-bisphosphate [PIP2]
